Experimental findings from PubChem BioAssay AID488969 (Vanderbilt High Throughput Screening Facility, 2010) are described below.

Over roughly 110,000 compounds, “z-score” has its median near -0.1; the highest 2% begin near 2. Some of the results follow. Activity calls are given as the source filed them.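 Rule for the calls: active = z-score in the third read window above 3 or below -3; inactive = the rest.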

This assay has as its target Metabotropic glutamate receptor 8 (Rattus norvegicus) (UniProt P70579). Put plainly: rat mGluR8 modulators via GIRK flux, primary screen, cell-based, thallium flux, HTS (AID 488969). The conditions noted are these: HEK293 rat mGluR8, GIRK (G protein-gated inwardly rectifying potassium channel) thallium flux, FluoZin2; at 10 µM; stronger effect = higher value; submaximal glutamate (EC20) added with thallium.
Sequence of UniProt P70579 (P70579 whole entry, looked up): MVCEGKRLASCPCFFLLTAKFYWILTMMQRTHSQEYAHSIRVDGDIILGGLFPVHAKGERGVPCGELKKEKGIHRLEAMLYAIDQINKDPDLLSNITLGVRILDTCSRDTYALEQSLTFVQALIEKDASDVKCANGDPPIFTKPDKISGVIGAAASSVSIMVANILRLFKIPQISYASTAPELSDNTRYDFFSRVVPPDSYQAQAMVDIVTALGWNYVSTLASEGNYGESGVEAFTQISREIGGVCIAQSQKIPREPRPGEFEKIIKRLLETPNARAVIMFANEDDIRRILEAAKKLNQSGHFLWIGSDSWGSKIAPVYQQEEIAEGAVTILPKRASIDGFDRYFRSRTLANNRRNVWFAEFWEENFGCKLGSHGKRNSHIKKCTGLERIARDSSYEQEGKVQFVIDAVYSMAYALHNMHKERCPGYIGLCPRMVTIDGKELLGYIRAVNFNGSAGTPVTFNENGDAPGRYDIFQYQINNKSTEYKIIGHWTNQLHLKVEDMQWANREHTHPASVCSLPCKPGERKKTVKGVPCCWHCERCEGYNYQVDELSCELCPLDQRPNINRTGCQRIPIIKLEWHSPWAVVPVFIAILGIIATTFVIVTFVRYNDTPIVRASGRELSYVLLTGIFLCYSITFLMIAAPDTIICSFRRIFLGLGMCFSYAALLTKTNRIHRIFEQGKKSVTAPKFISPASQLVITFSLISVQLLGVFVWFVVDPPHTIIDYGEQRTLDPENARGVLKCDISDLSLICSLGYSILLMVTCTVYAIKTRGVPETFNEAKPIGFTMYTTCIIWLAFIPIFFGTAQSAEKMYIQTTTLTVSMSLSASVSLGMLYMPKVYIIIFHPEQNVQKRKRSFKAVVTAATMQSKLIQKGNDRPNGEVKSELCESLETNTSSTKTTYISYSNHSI
The molecule `O=C(C1CCC1)N1CCc2cc(S(=O)(=O)NC3CCCc4ccccc43)ccc21` (centres undefined) came in with a z-score of 0.00996.

Regarding `N#Cc1ccc(-c2nc3ccccc3nc2-c2ccccc2)cc1C#N`, the z-score was -0.246.

`CCS(=O)(=O)NCCc1csc(-c2cccnc2)n1` gave a z-score of 0.366.

Molecule `Cc1ccc2oc(=O)c3cnn(CC(=O)NC4CCN(Cc5ccccc5)CC4)c3c2c1` gave a z-score of 0.567.

In turn, `Cc1ccc2c(Cl)cc(Cl)c(OCC(=O)Nc3cccc(S(=O)(=O)N(C)C)c3)c2n1` yielded a z-score of 0.415.

Consider `Cc1cc(NC(=O)c2cc(-c3ccc4c(c3)OCO4)on2)n(-c2ccccc2)n1`, for which the z-score was -1.07.

Turning to `COCCNC(=O)CN1C(=O)CSc2ncccc21`, the z-score is active: 3.57.

Regarding `CN1CCCC(OC(=O)COc2ccccc2)C1` (centres undefined), the z-score amounted to 0.0377.

Turning to `Cc1cc(C)n(-c2nc3ccccc3nc2N2CCN(C(=O)c3ccc(Cl)cc3)CC2)n1`, the z-score is -1.16.

With `CSCCC(NC(C)=O)C(=O)OCC(=O)N(c1ccccc1)c1ccccc1` (centres undefined), the z-score is -0.357.

On to `CC(=O)NC1=C(C#N)C(c2ccccc2)c2c(ccc3ccccc23)O1` (centres undefined), for which the z-score is -0.106.

On to `CC(CCc1ccccc1)NC(=O)c1ccco1` (centres undefined), for which the z-score is 0.0397.

As for `CN(C)c1nc(N)nc(CSc2ncc(Cl)cc2Cl)n1`, the z-score came to 0.472.

Regarding `N#CCSc1nc2ccc(N3CCCCC3)cc2c(=O)n1Cc1ccccc1`, the z-score amounted to 0.65.

`COCCn1nnnc1C(CC(C)C)N1CCN(c2ccccc2)CC1` (centres undefined) gave a z-score of 0.0468.

Consider `CN(c1ccc(C(=O)NCc2ccccn2)cc1)S(C)(=O)=O`, for which the z-score is -0.362.

Regarding `CCOC(=O)N1CCN(C(=O)CS(=O)Cc2nc(-c3ccc(C)cc3)oc2C)CC1` (centres undefined), the z-score is -0.212.

On to `COc1ccc(/C=C/C(=O)Nc2cc(S(=O)(=O)N3CCCCC3)ccc2N2CCCCC2)cc1OC`, for which the z-score is -0.459.

`CCOC(=O)c1c(NC(=O)c2nc3n(n2)C(C(F)F)CC(C)N3)sc2c1CCCC2` (centres undefined): the z-score is -0.338.

Consider `COc1ccc(N(CC(=O)NC(C)C)S(=O)(=O)c2ccc(NC(C)=O)cc2)cc1`, for which the z-score was -0.287.

For `COC(=O)c1ccc(NC(=O)CN2CCN(c3ccccc3C)CC2)cc1`, the z-score is -0.287.

Take `CC(C)c1ccccc1-n1c(SCC(=O)N2CCN(c3ccccc3)CC2)nnc1-c1cccnc1`: the z-score was -0.532.

Turning to `Cc1ccccc1-n1ccnc1SCC(=O)O`, the z-score is -0.255.

Take `CCCCSc1nnc(NC(=O)CCc2ccccc2)s1`: the z-score was -0.304.

`COc1cc(C(=O)OCC(=O)Nc2ccc3c(c2)OC(F)(F)O3)ccc1OCc1c(C)noc1C`: the z-score was -0.513.

In turn, `COC(=O)C(C)N1C(=O)S/C(=C\c2cc(C)n(-c3ccccn3)c2C)C1=O` (centres undefined) had a z-score of 1.55.

`CCC(Sc1nc2sc(C(=O)OC)c(C)c2c(=O)n1N)C(=O)N(CC)CC` (centres undefined): the z-score was -0.473.

On to `CCC(c1nnnn1Cc1ccc(OC)cc1)N(CCCO)Cc1cc2cc3c(cc2[nH]c1=O)OCO3` (centres undefined), for which the z-score is active: 5.57.

Take `O=C(Nc1ccc(Cl)cc1)Nc1nnc(SCc2ccc(Cl)cc2)s1`: the z-score is -0.53.
